Experimental data reported in PubChem BioAssay AID624417 (National Center for Advancing Translational Sciences (NCATS), 2012).
About 6,400 (1.6%) of roughly 410,000 compounds were called active. Inconclusive results, whose numbers are uncertain, are shown with a selection of clear calls. The call rests on the fitted dose curve; in most records, active means well fitted inhibition curve with a large enough effect; inconclusive means small, poorly fitted or top-dose-only effect; inactive means no such curve, though single readings can be large or run the other way. A potency beside an inconclusive call is a rough fit, not a confirmed value.

molecular target: Glucagon-like peptide 1 receptor (Homo sapiens) (UniProt P43220); experiment: qHTS of GLP-1 Receptor Inverse Agonists (Inhibition Mode); settings: HEK293 GLP-1R CRE-luciferase, luminescence, 24 h, GLP-1R form is constitutively active; activity change, negative = inhibition: at 38.3 µM (top of the series) unless noted; further: nearly all actives have a fitted effect of over 55% in size
Sequence of UniProt P43220 (P43220 whole entry, looked up): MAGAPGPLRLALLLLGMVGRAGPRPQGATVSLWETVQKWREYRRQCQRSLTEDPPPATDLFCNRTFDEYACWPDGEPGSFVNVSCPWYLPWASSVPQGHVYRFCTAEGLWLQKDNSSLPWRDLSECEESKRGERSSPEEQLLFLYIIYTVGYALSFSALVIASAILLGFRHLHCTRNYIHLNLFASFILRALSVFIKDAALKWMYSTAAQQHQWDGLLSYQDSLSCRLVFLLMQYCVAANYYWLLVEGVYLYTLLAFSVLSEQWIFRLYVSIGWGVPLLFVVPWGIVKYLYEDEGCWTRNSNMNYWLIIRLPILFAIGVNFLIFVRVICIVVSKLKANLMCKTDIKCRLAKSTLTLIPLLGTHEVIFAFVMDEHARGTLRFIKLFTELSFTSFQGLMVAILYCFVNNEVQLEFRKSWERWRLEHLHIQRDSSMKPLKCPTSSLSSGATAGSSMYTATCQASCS
Method in brief: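 qHTS in 1536-well format: reporter HEK293 cells expressing constitutive GLP-1R activity in DMEM + 10% Nu serum, 24 hr with compounds at 37 deg C, luminescence read after 12 min with detection reagent.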
On the % scale 0 is the no-effect control and ±100 the full control effect; potency means the concentration at half of the fitted maximal effect; tags describe the fitted curve by direction and shape.

Potency, inconclusive:
CCC(C)c1ccc(OCC(=O)Nc2ccc(CN3CCOCC3)cc2)cc1 (stereo not given) 28.2 µM [inhibitor, single point], Cc1ccc(NC(=S)N/C(=N/S(=O)(=O)c2ccccc2)c2ccccc2)cc1 12.6 µM [inhibitor, single point], CC12CN3CCN(CC(C3)/C1=N\N=C1/C3CN4CCN(C3)CC1(C)C4)C2 1.58 µM [inhibitor, full curve], CC(C)(C)N(Cc1ccccc1)C(=O)COC(=O)CCN1C(=O)C2CC=CCC2C1=O (stereo not given) 11.2 µM [inhibitor, partial curve, poor fit], COc1cccc(CN2CCN(C(=O)c3cc(-c4ccncc4)nc4ccc(C)cc34)CC2)c1 10 µM [inhibitor, partial curve, poor fit], CC(Oc1ccccc1)C(=O)Nc1nc2c(s1)C(=O)CC(C)(C)C2 (stereo not given) 22.4 µM [inhibitor, single point], O=C(CN1C(=O)NC2(CCCCCCC2)C1=O)NCc1ccc(Cl)cc1 11.2 µM [inhibitor, partial curve, poor fit], CCC(C(=O)Nc1ccc(N2CCOCC2)c(S(=O)(=O)Nc2ccccc2OC)c1)c1ccccc1 (stereo not given) 3.98 µM [inhibitor, partial curve], CCC(NC(=O)Nc1nnc(C(F)(F)F)s1)(C(F)(F)F)C(F)(F)F 1.12 µM [inhibitor, full curve, poor fit], Cc1cccc(S(=O)(=O)NC(=O)C2(C)CCN2C(=O)Cc2ccc(-c3ccccc3)cc2)c1 (stereo not given) 28.2 µM [inhibitor, single point], COc1ccc(-c2cc(C(C)=O)c(C)n2CCC(=O)Nc2cc(C)ccc2OC)cc1 11.2 µM [inhibitor, single point], CC(=O)NCCc1nc2ccccc2n1CCCCOc1ccc(Cl)cc1 10 µM [inhibitor, single point], Cc1cc(Br)c(NC(=O)CCNC(=O)OCc2ccccc2)cc1C 22.4 µM [inhibitor, single point], Cc1ccc(N=C2NC(=O)/C(=C/c3cccnc3)S2)c(C)c1 28.2 µM [inhibitor, single point], Cc1ccc(OCc2cc(C(=O)N3CCCCCCC3)no2)cc1C 11.2 µM [inhibitor, partial curve, poor fit], CCCOc1ccc(F)cc1-c1cc(C(=O)NCc2ccccc2OC)[nH]n1 8.91 µM [inhibitor, partial curve], COc1ccc(/C=C/C2=CC(C)(C)NC(=S)N2)c(OC)c1 11.2 µM [inhibitor, single point], COc1ccc(CCCNC(=O)C2Cc3c(-c4ccc5c(c4)OCO5)ccnc3O2)cc1 (stereo not given) 5.01 µM [inhibitor, partial curve], O=C(CSc1nc2cc3ccccc3cc2[nH]1)Nc1cccc(C(F)(F)F)c1 28.2 µM [inhibitor, single point], COc1ccc(C(C(=O)NC2CCCCC2)N(C(=O)c2snc(C(N)=O)c2N)c2ccc(OC)cc2OC)cc1 (stereo not given) 28.2 µM [inhibitor, single point], Cc1ccc(C(=O)Nc2ccc(OCc3ccccc3)cc2)s1 10 µM [inhibitor, partial curve, poor fit], COc1ccccc1N1CCN(S(=O)(=O)c2ccc(-c3cc(C(F)(F)F)on3)s2)CC1 11.2 µM [inhibitor, partial curve, poor fit], Cc1ccc(N(C)S(=O)(=O)c2cccc(C(=O)NC3=NCCS3)c2)cc1 5.62 µM [inhibitor, partial curve], CCn1cc(CN2CCC(C(=O)Nc3cccc(-c4cccc(Cl)c4)c3)CC2)c(C)n1 3.55 µM [inhibitor, partial curve, poor fit], Nc1ccccc1Nc1cc(-c2ccccc2)nn1-c1cccc(Cl)c1 7.94 µM [inhibitor, partial curve, poor fit], CCCn1ncc(CN2CCCC(C(=O)c3cccc(OC(C)C)c3)C2)c1C (stereo not given) 11.2 µM [inhibitor, partial curve, poor fit], CCC1(c2ccc(C)cc2)NC(=O)N(CC(=O)Nc2cccc(S(=O)(=O)N3CCCC3)c2)C1=O (stereo not given) 28.2 µM [inhibitor, single point], COCCNC(=O)CSc1nc(-c2ccc(F)cc2)[nH]c1-c1ccc(Cl)cc1 12.6 µM [inhibitor, single point], O=C(Nc1ccc(N2CCN(C(=O)c3cccs3)CC2)cc1)c1cccc(F)c1 5.62 µM [inhibitor, full curve, poor fit], Cc1ccc(-c2nc3ccc(Cl)cc3c(=O)n2O)cc1 10 µM [inhibitor, partial curve, poor fit]

Activity change, negative = inhibition, inactive:
COc1ccc(CCN(C)C2CCCN(C(=O)c3sccc3C)C2)cc1OC (stereo not given) 3.73%, COC(=O)c1ccc2c(=O)n(CCCCCC(=O)NCc3ccccn3)c(=O)[nH]c2c1 6.84%, COc1cccc2cc(-c3nc4sc(C(=O)Nc5ccc(F)cc5F)c(C)c4c(=O)[nH]3)c(=O)oc12 0.424%, O=c1c2ccccc2n(Cc2cccc(Cl)c2)c(=O)n1CCc1ccccc1 14.6%, N#Cc1c(NC(=O)/C=C/c2ccco2)sc2c1CCCC2 -34.2%, O=C(Nc1ccc(Cl)cc1)C1C2CCCCC21 (stereo not given) -10.7%, Cc1ccccc1Nc1nnc(SCC(=O)NCC2CCCO2)s1 (stereo not given) 4.88%, CCCN(CC(=O)Nc1cc(Cl)ccc1Cl)C(=O)c1ccc2n[nH]nc2c1 17%, Cc1occc1-c1nnc(SCC(=O)Nc2ccccc2-c2ccccc2)n1C -8.65%, CC(CNC(=O)Cn1ncc2c3ccccc3n(Cc3cccc(Cl)c3)c2c1=O)c1ccccc1 (stereo not given) -4.87%
